Some of the results follow. At the low end of the ranking, values are background and their order means little.
Molecular target: SIX1-Q177R homeodomain (UniProt Q15475)
Assay: universal protein binding microarray
Details: Universal all-10-mer PBM (8x60K, AMADID 030236), 300 nM GST-tagged protein, Alexa Fluor 488 anti-GST; buffer, salt, pH and temperature not stated; high values mean tight binding; most listed sequences are background and not binding sites; double strand, one strand shown

Sequence	binding signal [E-score]
TGCGAGAA	-0.122
AAACGCGC	-0.12
GCAGGGCC	-0.023
CAGGTATA	-0.00418
CCCAAGTC	0.00494
ATGGATCA	0.0339
ACAGGTCA	-0.0652
GGACAACA	0.107
ATAGTGCG	0.0395
GAAGTTGC	-0.198
ATGTTTAA	-0.19
CTTAAAGC	-0.182
GCAAATAC	-0.141
GCCCGGAA	-0.0612
GTGGCCAC	0.123
AACGAGGA	0.0917
CTGCTGTC	-0.262
AACACATA	0.17
AGGGCTGA	0.0339
TGCAAGAA	-0.193
TCACTGGA	-0.17
GCCGCAAA	-0.108

Sequence	binding signal [E-score]
CACGTTCC	0.0405
AAACTGTA	-0.102
ACGCGTAA	-0.0371
ACTTTTGA	-0.0621
GCGTGTCA	0.433
CAACCTTC	-0.0276
AGATTTGC	-0.158
CAAAGAAA	-0.226
GAACTTGA	-0.21
GGGACGTA	0.117
AGTCTTTG	-0.178
AAGGAGTC	0.0261
ACTAATAC	0.08
AGCCCGAT	-0.0892
CCCGAGCA	0.0851
GACAAGAC	-0.0555
ACAAACTA	0.0712
CATACACG	0.385
GACTAGTC	-0.0262
TCAATTGA	-0.297
GAACTTAC	0.00609
AAGGCCCA	-0.298

Sequence	binding signal [E-score]
GACCGGTC	-0.141
CAACACTA	0.34
GCAGGAAA	-0.0967
GCGTGAGA	-0.118
AAGTACGG	-0.171
AGAGCACC	0.202
GCGGTGAA	-0.221
CCTGTATA	-0.139
CCAAAGGA	-0.0445
GCCACCCA	-0.0074
GTTATTGA	0.0467
ACATAATA	-0.0879
AGTAATGA	0.0447
CAGCAACC	-0.0939
AACTAGCG	-0.128
AGGATCCA	0.0758
GCTTCCCA	-0.32
ATGTGACC	-0.0737
ACCATCCG	0.141
AAATTAAA	-0.214
AAGAGGTA	0.0511
CGGCCCGC	-0.0779

Sequence	binding signal [E-score]
CTCGCTCA	-0.153
ACTAGAAT	-0.0628
ATCTGTAA	-0.165
ATAGCGCA	-0.13
TGCCGCCA	-0.168
TAGCATGA	-0.107
CAATTAAG	-0.062
GATGTTTA	-0.107
TCAAATCA	-0.0792
ATGGACCA	0.0656
AGGCGTTG	-0.0962
ACGTATAC	-0.0509
CATATACA	0.144
TGGTGTAA	0.486
GACAGAAA	-0.193
AGTCAGTA	0.00856
CCAAATCC	-0.0948
CGTCAGTA	-0.0889
ATGACTGC	-0.3
ACACAACT	0.187
AGGTAACT	-0.145
ACATCGGA	-0.0158

Sequence	binding signal [E-score]
CTGTGAGA	-0.0128
GCGCGCAC	0.115
ACCGGATG	0.0831
CAGTCAAG	-0.259
AACACAAT	0.15
CCTGACAA	-0.136
CTCTCATC	-0.13
GGCCTTAA	-0.276
GCGTACAA	0.073
CATGTTCC	-0.159
CCGGACTA	0.0815
CTATAGAG	-0.142
ATGACGAC	-0.0804
CACGAGCC	0.0542
CCTCCACG	-0.087
CGACCCCA	0.233
GCGGATGA	-0.188
AACGATTG	-0.24
AACTATCC	-0.177
AGGCCACA	-0.0931
GAGTTTCC	-0.278

From article PMC10668032
